Reference: publication PMC10407929
Where “and” joins values, the source holds several entries; their conditions need not be identical. Equal values may be shown once. Some of the results follow. Measured with an extract: partners may take part in the binding.

How the values were obtained:
Assay in all cases: pull-down
[1] = target: T1, TFAM (Homo sapiens) (UniProt Q00059); details: 150 mM NaCl, 50 mM Tris pH 8.0, 0.25% NP-40, 1 mM DTT, 4 C, 2 h, 100 ug nuclear extract, double strand, one strand shown
T1 sequence: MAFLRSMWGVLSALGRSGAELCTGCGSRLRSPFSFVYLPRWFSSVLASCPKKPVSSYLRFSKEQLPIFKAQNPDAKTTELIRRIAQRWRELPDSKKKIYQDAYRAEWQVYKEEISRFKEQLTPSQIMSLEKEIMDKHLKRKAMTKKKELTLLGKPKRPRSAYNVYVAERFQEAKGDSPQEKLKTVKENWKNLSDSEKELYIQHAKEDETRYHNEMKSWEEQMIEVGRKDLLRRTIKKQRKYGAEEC

[2] = target: XRCC1 (Homo sapiens) (UniProt P18887); details: 150 mM NaCl, 50 mM Tris pH 8.0, 0.25% NP-40, 1 mM DTT, 4 C, 2 h, 100 ug nuclear extract, double strand, one strand shown
[3] = target: TDP1 (Homo sapiens) (UniProt Q9NUW8); details: 150 mM NaCl, 50 mM Tris pH 8.0, 0.25% NP-40, 1 mM DTT; 4 C, 2 h; 100 ug nuclear extract; double strand, one strand shown
Chain of UniProt Q9NUW8 (Q9NUW8 whole entry): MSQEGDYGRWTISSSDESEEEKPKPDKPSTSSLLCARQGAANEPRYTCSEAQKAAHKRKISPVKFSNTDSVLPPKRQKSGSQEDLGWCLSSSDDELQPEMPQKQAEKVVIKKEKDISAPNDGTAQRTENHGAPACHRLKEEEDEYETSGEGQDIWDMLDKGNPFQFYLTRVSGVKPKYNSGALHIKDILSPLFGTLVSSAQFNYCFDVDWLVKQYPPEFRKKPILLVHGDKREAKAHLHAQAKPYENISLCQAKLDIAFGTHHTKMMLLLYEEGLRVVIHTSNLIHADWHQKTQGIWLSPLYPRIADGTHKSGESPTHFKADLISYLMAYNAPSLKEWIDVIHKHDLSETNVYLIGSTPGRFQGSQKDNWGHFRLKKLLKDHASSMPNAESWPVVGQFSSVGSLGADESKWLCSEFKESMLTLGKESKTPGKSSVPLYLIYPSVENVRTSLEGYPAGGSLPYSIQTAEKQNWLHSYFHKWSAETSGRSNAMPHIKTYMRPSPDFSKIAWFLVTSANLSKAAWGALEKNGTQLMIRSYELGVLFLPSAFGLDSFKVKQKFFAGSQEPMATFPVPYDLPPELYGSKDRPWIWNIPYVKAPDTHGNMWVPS

[4] = target: T2, TFAP4 (UniProt Q01664); details: 150 mM NaCl, 50 mM Tris pH 8.0, 0.25% NP-40, 1 mM DTT; 4 C, 2 h; 100 ug nuclear extract; double strand, one strand shown
T2 sequence: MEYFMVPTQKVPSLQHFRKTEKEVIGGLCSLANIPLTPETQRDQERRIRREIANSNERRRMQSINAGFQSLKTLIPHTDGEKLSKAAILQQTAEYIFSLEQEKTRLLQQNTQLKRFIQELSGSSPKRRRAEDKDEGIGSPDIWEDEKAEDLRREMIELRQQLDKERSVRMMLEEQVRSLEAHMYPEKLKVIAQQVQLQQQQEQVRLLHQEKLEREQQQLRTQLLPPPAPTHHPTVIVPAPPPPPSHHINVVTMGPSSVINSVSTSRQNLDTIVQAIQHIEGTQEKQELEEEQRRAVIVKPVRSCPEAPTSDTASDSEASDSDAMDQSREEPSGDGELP

[5] = target: TUBA4A (Homo sapiens) (UniProt P68366); details: 150 mM NaCl, 50 mM Tris pH 8.0, 0.25% NP-40, 1 mM DTT; 4 C, 2 h; 100 ug nuclear extract; double strand, one strand shown
Chain of UniProt P68366 (P68366 whole entry): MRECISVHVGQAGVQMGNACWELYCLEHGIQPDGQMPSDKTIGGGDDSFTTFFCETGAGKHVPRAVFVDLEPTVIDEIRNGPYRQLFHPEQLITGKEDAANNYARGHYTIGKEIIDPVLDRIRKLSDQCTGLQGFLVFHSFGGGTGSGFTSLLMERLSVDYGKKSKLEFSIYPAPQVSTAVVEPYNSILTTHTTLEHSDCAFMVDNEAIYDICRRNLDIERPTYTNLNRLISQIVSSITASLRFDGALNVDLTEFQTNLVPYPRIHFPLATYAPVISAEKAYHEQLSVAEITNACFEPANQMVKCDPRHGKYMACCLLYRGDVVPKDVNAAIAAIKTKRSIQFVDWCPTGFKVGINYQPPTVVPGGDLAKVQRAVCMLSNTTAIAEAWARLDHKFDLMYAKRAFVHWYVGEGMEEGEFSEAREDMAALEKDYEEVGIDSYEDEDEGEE

[6] = target: USF2 (UniProt Q15853); details: 150 mM NaCl, 50 mM Tris pH 8.0, 0.25% NP-40, 1 mM DTT; 4 C, 2 h; 100 ug nuclear extract; double strand, one strand shown
Chain of UniProt Q15853 (Q15853 whole entry): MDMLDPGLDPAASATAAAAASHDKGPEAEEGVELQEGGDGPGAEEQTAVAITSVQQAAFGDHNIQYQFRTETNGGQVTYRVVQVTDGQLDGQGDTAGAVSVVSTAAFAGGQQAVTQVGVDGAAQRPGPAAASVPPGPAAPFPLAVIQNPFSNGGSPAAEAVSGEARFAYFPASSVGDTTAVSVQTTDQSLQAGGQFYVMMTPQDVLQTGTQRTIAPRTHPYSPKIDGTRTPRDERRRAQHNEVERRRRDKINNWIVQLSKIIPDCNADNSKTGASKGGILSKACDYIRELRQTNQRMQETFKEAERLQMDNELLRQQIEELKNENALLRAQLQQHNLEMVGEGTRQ

[7] = target: XPC (Homo sapiens) (UniProt Q01831); details: 150 mM NaCl, 50 mM Tris pH 8.0, 0.25% NP-40, 1 mM DTT; 4 C, 2 h; 100 ug nuclear extract; double strand, one strand shown
Chain of UniProt Q01831 (Q01831 whole entry): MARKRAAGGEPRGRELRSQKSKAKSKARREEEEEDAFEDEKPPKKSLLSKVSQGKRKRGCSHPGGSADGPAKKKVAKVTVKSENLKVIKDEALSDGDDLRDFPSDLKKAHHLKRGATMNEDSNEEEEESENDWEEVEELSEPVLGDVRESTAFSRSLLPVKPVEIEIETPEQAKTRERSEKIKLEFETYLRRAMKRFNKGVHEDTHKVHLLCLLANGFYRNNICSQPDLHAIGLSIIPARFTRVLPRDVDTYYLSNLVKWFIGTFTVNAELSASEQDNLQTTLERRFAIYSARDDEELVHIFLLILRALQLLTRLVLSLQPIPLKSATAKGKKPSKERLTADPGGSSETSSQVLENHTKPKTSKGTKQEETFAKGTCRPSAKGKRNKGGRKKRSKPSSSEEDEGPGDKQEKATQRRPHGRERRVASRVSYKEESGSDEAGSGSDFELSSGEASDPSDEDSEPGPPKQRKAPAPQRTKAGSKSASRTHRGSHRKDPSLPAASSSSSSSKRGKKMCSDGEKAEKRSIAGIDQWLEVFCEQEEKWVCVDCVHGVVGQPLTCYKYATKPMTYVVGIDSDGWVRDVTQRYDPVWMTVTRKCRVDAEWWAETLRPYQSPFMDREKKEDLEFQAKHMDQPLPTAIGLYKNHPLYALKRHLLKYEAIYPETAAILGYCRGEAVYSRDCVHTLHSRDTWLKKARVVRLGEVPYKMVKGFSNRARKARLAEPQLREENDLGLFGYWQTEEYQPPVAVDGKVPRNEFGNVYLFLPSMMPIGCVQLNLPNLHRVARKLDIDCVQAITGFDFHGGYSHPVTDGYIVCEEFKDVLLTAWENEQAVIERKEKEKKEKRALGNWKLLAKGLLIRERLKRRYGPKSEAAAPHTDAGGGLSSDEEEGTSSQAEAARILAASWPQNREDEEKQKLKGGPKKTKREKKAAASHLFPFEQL

[8] = target: XRCC5 (Homo sapiens) (UniProt P13010); details: 150 mM NaCl, 50 mM Tris pH 8.0, 0.25% NP-40, 1 mM DTT; 4 C, 2 h; 100 ug nuclear extract; double strand, one strand shown
Chain of UniProt P13010 (P13010 whole entry): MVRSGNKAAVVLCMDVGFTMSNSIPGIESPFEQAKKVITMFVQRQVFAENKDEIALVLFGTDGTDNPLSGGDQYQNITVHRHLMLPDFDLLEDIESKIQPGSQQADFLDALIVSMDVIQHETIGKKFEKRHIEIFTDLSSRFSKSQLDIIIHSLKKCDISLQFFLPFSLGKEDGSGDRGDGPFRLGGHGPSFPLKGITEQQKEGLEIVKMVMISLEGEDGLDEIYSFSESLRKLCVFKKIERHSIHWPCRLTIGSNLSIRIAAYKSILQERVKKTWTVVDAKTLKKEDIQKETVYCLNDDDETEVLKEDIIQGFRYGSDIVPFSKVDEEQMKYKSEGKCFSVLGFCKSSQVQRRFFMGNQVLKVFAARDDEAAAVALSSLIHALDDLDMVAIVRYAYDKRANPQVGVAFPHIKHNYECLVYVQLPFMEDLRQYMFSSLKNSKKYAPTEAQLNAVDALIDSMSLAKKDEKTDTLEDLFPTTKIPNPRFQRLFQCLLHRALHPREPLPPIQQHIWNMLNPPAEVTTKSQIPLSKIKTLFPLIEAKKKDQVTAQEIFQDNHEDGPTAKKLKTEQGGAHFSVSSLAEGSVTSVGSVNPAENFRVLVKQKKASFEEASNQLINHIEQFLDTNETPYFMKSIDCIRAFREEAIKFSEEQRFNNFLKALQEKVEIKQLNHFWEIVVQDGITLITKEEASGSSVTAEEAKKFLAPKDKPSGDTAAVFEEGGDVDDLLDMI

[9] = target: SKP1 (Homo sapiens) (UniProt P63208); details: 150 mM NaCl, 50 mM Tris pH 8.0, 0.25% NP-40, 1 mM DTT; 4 C, 2 h; 100 ug nuclear extract; double strand, one strand shown
Chain of UniProt P63208 (P63208 whole entry): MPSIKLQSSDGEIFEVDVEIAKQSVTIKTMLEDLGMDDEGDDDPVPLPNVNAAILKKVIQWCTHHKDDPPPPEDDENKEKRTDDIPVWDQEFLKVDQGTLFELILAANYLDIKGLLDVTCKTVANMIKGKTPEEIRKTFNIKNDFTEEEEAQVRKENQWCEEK

[10] = target: T3, TPP1 (Homo sapiens) (UniProt O14773); details: 150 mM NaCl, 50 mM Tris pH 8.0, 0.25% NP-40, 1 mM DTT; 4 C, 2 h; 100 ug nuclear extract; double strand, one strand shown
T3 sequence: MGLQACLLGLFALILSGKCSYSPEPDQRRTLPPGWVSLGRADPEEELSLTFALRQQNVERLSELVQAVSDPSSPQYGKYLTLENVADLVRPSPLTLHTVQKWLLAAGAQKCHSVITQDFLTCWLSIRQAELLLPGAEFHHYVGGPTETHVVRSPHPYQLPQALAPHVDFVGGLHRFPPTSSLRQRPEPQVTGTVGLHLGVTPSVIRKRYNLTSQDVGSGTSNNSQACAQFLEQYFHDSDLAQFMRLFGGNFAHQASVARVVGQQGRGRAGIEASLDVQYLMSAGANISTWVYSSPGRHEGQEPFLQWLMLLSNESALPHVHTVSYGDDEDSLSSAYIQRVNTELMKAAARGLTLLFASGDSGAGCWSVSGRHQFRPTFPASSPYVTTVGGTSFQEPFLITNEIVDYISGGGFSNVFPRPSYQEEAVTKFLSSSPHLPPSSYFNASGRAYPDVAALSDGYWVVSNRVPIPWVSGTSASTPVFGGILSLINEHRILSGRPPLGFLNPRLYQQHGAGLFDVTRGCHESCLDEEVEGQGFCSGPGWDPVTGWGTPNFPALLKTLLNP

[11] = 5mC at 15,17 (strand 1), 5mC at 14,16 (strand 2)

With “GCCGCCGCCCTTCTCGCGAGACTGCCGGGCC [methylated CGCG bait]” the half-maximal binding [1, 11] was 169 nM and the half-maximal binding [2, 11] was 114 nM.

Sequence “GCCGCCGCCCTCCCACGCGCTGCCGGGCC [BEND3 bait]” has a half-maximal binding [3] of 103 nM, a half-maximal binding [1] of 139 nM and a half-maximal binding [4] of 440 nM. For the same sequence, the half-maximal binding [5] was 101 nM, the half-maximal binding [6] was 156 nM and the half-maximal binding [7] was 89 nM. It also gave a half-maximal binding [2] of 144 nM and a half-maximal binding [8] of 10.5 nM.

For GAGAGCCCCGCCCCCTGGCT [SP/KLF bait], the half-maximal binding [2] was 354 nM and the half-maximal binding [8] was 40.6 nM.

In the case of “GCCGCCGCCCTTCTCGCGAGACTGCCGGGCC [CGCG bait]”, the half-maximal binding [9] was 59.5 nM, the half-maximal binding [1] was 162 nM and the half-maximal binding [4] was 247 nM. The half-maximal binding [10] was 424 nM, the half-maximal binding [7] was 30.5 nM and 122 nM and the half-maximal binding [2] was 120 nM. It also gave a half-maximal binding [8] of 101 nM.

With “GAGAGAAAATAAAACTGGCT [SP/KLF negative control bait]” the half-maximal binding [1] was 479 nM and the half-maximal binding [2] was 390 nM.
